Data taken from PubChem BioAssay AID588579 (National Center for Advancing Translational Sciences (NCATS), 2011).
Values joined by “and” are separate entries in the source; they are usually repeats but may differ in a detail not shown here. Identical values can stand only once. Screen size: about 400,000 compounds; about 2,200 (0.55%) were called active. The inconclusive results got no clear call from the source; some entries with a clear call stand among them for comparison. Calls follow the shape of the dose curve; as a rule, active = well fitted inhibition curve with a large enough effect; inconclusive = small, poorly fitted or top-dose-only effect, or another doubt; inactive = no such curve, though single readings can be large or run the other way. Potencies beside an inconclusive call are fits to weak or partial responses and may not hold up.

Molecular target: DNA polymerase kappa (Homo sapiens) (UniProt Q9UBT6)
Test: qHTS for Inhibitors of Polymerase Kappa
Conditions: purified Pol kappa, fluorescent DNA synthesis assay, 10 min; series mostly up to 107 µM
Summary of the method: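 First, compounds were pin-transferred onto 10 nM Pol kappa. After 15 min at room temperature, substrate was added to 50 nM final. Fluorescence was then measured kinetically at 0 and 10 min.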
Potency is read from the fitted curve at half-maximal effect; tags tell the direction and shape of the fitted curve.

UniProt Q9UBT6, sequence (Q9UBT6 whole entry, looked up): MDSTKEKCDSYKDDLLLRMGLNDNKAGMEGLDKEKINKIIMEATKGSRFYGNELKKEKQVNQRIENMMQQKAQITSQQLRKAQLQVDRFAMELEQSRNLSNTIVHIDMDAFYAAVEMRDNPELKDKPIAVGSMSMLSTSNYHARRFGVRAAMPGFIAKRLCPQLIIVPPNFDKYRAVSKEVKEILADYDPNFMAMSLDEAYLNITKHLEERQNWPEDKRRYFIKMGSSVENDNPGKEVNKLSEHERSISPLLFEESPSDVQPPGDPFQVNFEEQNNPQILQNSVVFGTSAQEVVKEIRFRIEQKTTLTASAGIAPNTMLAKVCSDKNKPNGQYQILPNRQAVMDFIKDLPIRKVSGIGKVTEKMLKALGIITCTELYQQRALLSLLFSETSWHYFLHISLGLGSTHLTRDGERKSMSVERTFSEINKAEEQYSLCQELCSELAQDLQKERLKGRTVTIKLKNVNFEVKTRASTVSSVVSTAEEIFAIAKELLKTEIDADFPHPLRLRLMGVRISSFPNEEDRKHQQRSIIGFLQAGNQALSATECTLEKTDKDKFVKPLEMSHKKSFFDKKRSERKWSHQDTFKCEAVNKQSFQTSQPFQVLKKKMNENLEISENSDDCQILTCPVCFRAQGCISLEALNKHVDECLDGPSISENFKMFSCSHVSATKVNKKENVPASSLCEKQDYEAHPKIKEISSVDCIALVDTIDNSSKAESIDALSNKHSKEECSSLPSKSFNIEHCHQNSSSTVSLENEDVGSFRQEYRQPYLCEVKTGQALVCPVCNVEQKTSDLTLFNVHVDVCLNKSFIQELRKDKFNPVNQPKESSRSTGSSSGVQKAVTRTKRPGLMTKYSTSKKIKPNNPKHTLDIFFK

Structure (SMILES) | Potency
CCN(CC)c1ccc(/C=C2\C(=O)NC(=O)N(Cc3ccco3)C2=O)cc1 | active: 79.4 µM
Cc1ccc(C=C2C(Cl)=C(Cl)C(Cl)=C2Cl)cc1 | active: 15.8 µM
O=C1NC(=O)N(c2ccc(Cl)cc2)C(=O)/C1=C/c1coc2ccc(O)cc2c1=O | inconclusive: 89.1 µM [inhibitor, partial curve, poor fit]
COc1cccc2c1C(=O)c1c(O)c3c(c(O)c1C2=O)C[C@@](O)(C(=O)CO)C[C@@H]3O[C@H]1C[C@H](N)[C@H](OC2CCCCO2)[C@H](C)O1 (stereo partly drawn) | active: 39.8 µM and active: 10 µM
Cc1cc(/C=C2\C(=O)NC(=O)N(c3ccccc3)C2=O)c(C)n1-c1ccc(C(=O)O)c(Cl)c1 | inconclusive: 89.1 µM [inhibitor, single point]
CN1CC[C@@]2(C)c3cc(O)ccc3N(C)C12 (stereo partly drawn) | inactive
CC[C@@]1(O)C(=O)OCc2c1cc1n(c2=O)Cc2cc3c(N)cccc3nc2-1 | active: 79.4 µM
O=C(O)c1ccc2[nH]cc(CCCCN3CC=C(c4ccccc4)CC3)c2c1 | inconclusive: 11.2 µM [inhibitor, single point]
CC(C)CCCC1(C)C=Cc2c(O)c3c(c(CCC(C)C)c2O1)OC12C(CC4CC1C(C)(C)OC2(CCC(C)C(=O)O)C4O)C3=O (stereo not drawn) | inconclusive: 28.2 µM [inhibitor, single point]
O=[N+]([O-])c1cc([As](=O)(O)O)ccc1O | inconclusive: 39.8 µM [inhibitor, single point]
COc1cc(N2CCOCC2)ccc1/C=C1\C(=O)NC(=O)N(C2CCCCC2)C1=O | inactive
O=C1CC=C2C3CC4N(CCC45c4cc(O)c(O)cc4N1C25)CC3=CCBr (stereo not drawn) | inconclusive: 89.1 µM [inhibitor, single point]
COC(=O)C1=C(c2ccc(-c3ccccc3)c(F)c2)C[C@@H]2CC[C@H]1N2C(=O)N1CCc2cc(OC)c(OC)cc2C1 | inconclusive: 100 µM [inhibitor, single point]
CCCN1CCc2cccc3c2[C@H]1Cc1ccc(O)c(O)c1-3 | inconclusive: 37.7 µM [inhibitor, partial curve, poor fit]
CC[n+]1c(/C=C/C=C/c2ccc(N(C)C)cc2)sc2ccccc21 | inactive
CN(C)c1ccc(/C=C2/C(=O)NC(=O)N(Cc3ccco3)C2=O)cc1 | active: 35.5 µM
CCc1cccc(CC)c1NC1=NCCN1 | inactive
O=C(O)CCn1cc(C=C2C(=O)NC(=S)NC2=O)c(-c2cc3ccccc3oc2=O)n1 | inconclusive: 89.1 µM [inhibitor, single point]
COc1ccc2c3c([nH]c2c1)C(C)=NCC3 | inconclusive: 22.4 µM [inhibitor, single point]
O=c1[nH]c(=O)n(Cc2ccco2)c(O)c1C=NCc1cccs1 | inconclusive: 89.1 µM [inhibitor, single point]
O=C1NC(=O)N(CCNc2ncc(C(F)(F)F)cc2Cl)C(=O)C1/C=N/OCc1c(F)cccc1Cl (stereo not drawn) | inconclusive: 35.5 µM [inhibitor, single point]

Structure (SMILES) | Potency
Cc1ccc(N2C(=O)NC(=O)/C(=C\c3cc(C)n(-c4cc(C(=O)O)cc(C(=O)O)c4)c3C)C2=O)cc1 | inconclusive: 70.8 µM [inhibitor, single point]
O=C1NC(=O)N(c2ccccc2F)C(=O)/C1=C/c1ccc(Sc2nc3ccccc3[nH]2)o1 | active: 22.4 µM
CC1Cc2ccccc2N1NC(=O)c1ccc(Cl)c(S(N)(=O)=O)c1 (stereo not drawn) | inconclusive: 4.47 µM [inhibitor, single point]
CCC(C)N1C(=O)/C(=C/c2ccc3c(c2)CCN3CCCCl)C(=O)NC1=S (stereo not drawn) | inconclusive: 100 µM [inhibitor, single point]
CC[C@@H](CO)NC(=O)[C@H]1C=C2c3cccc4c3c(cn4C)C[C@H]2N(C)C1 | inconclusive: 1.41 µM [inhibitor, partial curve, poor fit]
CCCCC/C=C\C/C=C\C/C=C\C/C=C\CCCCOC(CO)CO | inconclusive: 25.1 µM [inhibitor, partial curve]
O=C1NC(=O)N(c2ccccc2)C(=O)/C1=C/c1ccoc1 | inconclusive: 79.4 µM [inhibitor, partial curve, poor fit]
O=C1NC(=O)C(Nc2ccccc2)C(=O)N1 | inactive
CCc1ccc(N2C(=O)NC(=O)/C(=C\c3cc(C)n(-c4cc(C(=O)O)cc(C(=O)O)c4)c3C)C2=O)cc1 | inconclusive: 50.1 µM [inhibitor, partial curve, poor fit]
Fc1ccc(C(OCCN2CCN(CCCc3ccccc3)CC2)c2ccc(F)cc2)cc1 | inconclusive: 37.7 µM [inhibitor, partial curve, poor fit]
Oc1ccccc1O | active: 50.1 µM
CCN(CCO)c1ccc(N=Cc2c(O)n(C)c(=S)[nH]c2=O)cc1 | inconclusive: 39.8 µM [inhibitor, single point]
CCCC[C@H]1C(=O)O[C@H](C)[C@H](NC(=O)c2cccc(NC=O)c2OC)C(=O)O[C@@H](C)[C@@H]1OC(=O)CC(C)C | inconclusive: 2.67 µM [inhibitor, partial curve, poor fit]
O=C1NC(=O)N(Cc2ccc(F)cc2)C(=O)/C1=C\c1ccc([N+](=O)[O-])s1 | active: 31.6 µM
Cn1cc(/C=C2\C(=O)NC(=O)N(c3ccccc3)C2=O)c2ccccc21 | inactive
CC(COc1ccccc1)N(CCCl)Cc1ccccc1 (stereo not drawn) | inconclusive: 20 µM [inhibitor, partial curve, poor fit]
CNCCc1c[nH]c2ccc(O)cc12 | inconclusive: 7.52 µM [inhibitor, single point]
O=C(N/N=C/C1C(=O)NC(=S)N(c2ccccc2)C1=O)c1cc(Br)c(O)c(Br)c1 (stereo not drawn) | inconclusive: 89.1 µM [inhibitor, partial curve, poor fit]
CCN1/C(=C\C=C\C2=[N+](CC)c3ccccc3C2(C)C)C(C)(C)c2ccccc21 | active: 17.8 µM
O=c1[nH]c(=O)n(CCC2=CCCCC2)c(O)c1/C=N/Nc1cccc2ccccc12 | inactive
CC1(C)C(C=C(Cl)Cl)C1C(=O)OC(C#N)c1cccc(Oc2ccccc2)c1 (stereo not drawn) | inconclusive: 20 µM [inhibitor, partial curve, poor fit]

Structure (SMILES) | Potency
O=C1NC(=S)NC(=O)C1=Cc1ccc2c(c1)CCN2CCCCl | active: 10 µM
Cc1ccccc1N1C(=O)NC(=O)/C(=C\c2ccc3c(c2)CCCN3Cc2ccccc2)C1=O | inactive
C/C(=N\NC(=O)c1ccncc1)c1c(O)n(Cc2ccccc2)c(=O)[nH]c1=O | inactive
CC(C)N1C(=O)/C(=C/C=C/c2ccco2)C(=O)N(Cc2ccco2)C1=O | active: 22.4 µM
C[C@]12N[C@H](Cc3ccccc31)c1ccccc12 | inconclusive: 100 µM [inhibitor, single point]
N#Cc1cn(Cc2ccccc2)c(=O)[nH]c1=O | inconclusive: 100 µM [inhibitor, single point]
Brc1c(Br)c(Br)c2n[nH]nc2c1Br | inconclusive: 42.3 µM [inhibitor, partial curve, poor fit]
O=C1NC(=O)N(CCc2ccc(F)cc2)C(=O)/C1=C/c1ccco1 | inconclusive: 22.4 µM [inhibitor, full curve, poor fit]
NC(Cc1cc(O)c(O)cc1O)C(=O)O (stereo not drawn) | active: 1.41 µM and active: 670 nM
O=C1C=C2C(=CCOC2O)O1 (stereo not drawn) | inconclusive: 35.5 µM [inhibitor, single point]
CC1(C)OC(c2ccccc2)=C/C(=C/C=C2C(=O)NC(=S)NC2=O)O1 | inconclusive: 22.4 µM [inhibitor, partial curve, poor fit]
C=C1C(=O)O[C@H]2[C@H]1[C@H](OC(=O)CC(=O)O[C@@H]1C[C@@H](C)[C@@H]3C=CC(=O)[C@@]3(C)[C@H]3OC(=O)C(=C)[C@H]13)C[C@@H](C)[C@H]1C=CC(=O)[C@]12C | active: 79.4 µM
CCOc1ccc(-c2cc(C(=O)N3CCC4(CC3)OCCO4)c3ccccc3n2)cc1 | inconclusive: 89.1 µM [inhibitor, partial curve, poor fit]
CN(N=O)c1cc(O)ccc1O | inconclusive: 37.7 µM [inhibitor, single point]
COc1ccc(N2C(=O)NC(=O)/C(=C/c3ccc([N+](=O)[O-])s3)C2=O)cc1 | active: 17.8 µM
C[n+]1c2ccccc2nc2ccc(NCCO)cc21 | active: 44.7 µM
Cc1cc(/C=C2\C(=O)NC(=O)N(Cc3ccco3)C2=O)c(C)n1-c1ccc(O)cc1 | active: 39.8 µM
Cc1ccc(N2C(=O)NC(=O)/C(=C/C=C/c3ccco3)C2=O)cc1 | active: 20 µM
COc1cc2c(cc1-c1cc3cc4ccoc4cc3oc1=O)OCO2 | inconclusive: 15.8 µM [inhibitor, partial curve]
C[C@]12C=CC(=O)C=C1CC[C@@H]1C2=CC[C@]2(C)[C@@H](C(=O)CN3CCN(c4cc(N5CCCC5)nc(N5CCCC5)n4)CC3)CC[C@@H]12 | inconclusive: 37.7 µM [inhibitor, single point]
C[C@@H]1O[C@@H](O[C@H]2CC[C@@H](O[C@H]3[C@H](O)C[C@H](c4ccc5c(c4O)C(=O)C4=C(C5=O)[C@@]5(O)C(=O)C[C@](C)(O[C@H]6CC[C@H](O[C@H]7C=CC(=O)[C@H](C)O7)[C@H](C)O6)C[C@@]5(O)C=C4)O[C@@H]3C)O[C@H]2C)C=CC1=O | inconclusive: 37.7 µM [inhibitor, partial curve, poor fit]
